From publication PMC10762078, “Role of UPF1-LIN28A interaction during early differentiation of pluripotent stem cells” (Nature Communications, 2024)
Results are given in words; binding and its absence hold for the method and conditions named. For part of these data: Binding seen in cells or lysates may run through a third protein. Some entries that bind do so weakly or less than the wild type. For part of these data: Where a sequence is shown, tags or fusion partners need not be part of it.

How the values were obtained:
His-LIN28A [1] = target: T1, His-LIN28A (UniProt Q9H9Z2 1-209); assay: SPR; His-LIN28A immobilised on Ni-NTA gold chip (about 1000 RU), peptides as analytes at 15 μM in 1× HBS-T, 3 min association, 6 min dissociation; iMSPR-ProX; both purified
T1 chain: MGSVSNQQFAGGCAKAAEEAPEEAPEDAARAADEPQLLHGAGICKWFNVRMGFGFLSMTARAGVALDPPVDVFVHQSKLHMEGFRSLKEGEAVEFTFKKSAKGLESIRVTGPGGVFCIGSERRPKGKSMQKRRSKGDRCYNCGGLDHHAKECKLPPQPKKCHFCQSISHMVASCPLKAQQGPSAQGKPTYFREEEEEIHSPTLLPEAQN

[2] = target: T2, GST-LIN28A (full-length, 1–209) (human (cDNA of PA-1 cells)) (UniProt Q9H9Z2); assay: pull-down; same experiment as a9, read as displacement by the synthetic peptide CPP-P8 added to the cells (2 μM, 12 h); only the binder purified
T2 sequence: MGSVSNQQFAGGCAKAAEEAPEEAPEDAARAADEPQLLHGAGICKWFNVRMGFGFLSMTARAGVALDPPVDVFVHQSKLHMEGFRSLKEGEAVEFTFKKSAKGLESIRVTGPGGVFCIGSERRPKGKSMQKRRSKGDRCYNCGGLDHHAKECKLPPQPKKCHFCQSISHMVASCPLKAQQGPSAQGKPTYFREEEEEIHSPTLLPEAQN

[3] = target: T3, LIN28A (endogenous) (human (endogenous in hPSCs, PA-1)) (UniProt Q9H9Z2); assay: proximity ligation; PLA of UPF1 and LIN28A in LIN28A-overexpressing HeLa cells and hPSCs treated with synthetic CPP-conjugated peptides, read as displacement by CPP-P8; only the binder purified
T3 sequence: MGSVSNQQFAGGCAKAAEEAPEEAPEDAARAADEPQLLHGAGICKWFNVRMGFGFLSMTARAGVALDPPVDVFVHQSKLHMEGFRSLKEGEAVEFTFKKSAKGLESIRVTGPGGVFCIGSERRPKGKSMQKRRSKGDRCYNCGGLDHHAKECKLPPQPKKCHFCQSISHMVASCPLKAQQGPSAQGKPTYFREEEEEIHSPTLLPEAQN

[4] = target: T4, LIN28A overexpressed in HeLa cells (human (cDNA of PA-1 cells)) (UniProt Q9H9Z2); assay: as above
T4 sequence: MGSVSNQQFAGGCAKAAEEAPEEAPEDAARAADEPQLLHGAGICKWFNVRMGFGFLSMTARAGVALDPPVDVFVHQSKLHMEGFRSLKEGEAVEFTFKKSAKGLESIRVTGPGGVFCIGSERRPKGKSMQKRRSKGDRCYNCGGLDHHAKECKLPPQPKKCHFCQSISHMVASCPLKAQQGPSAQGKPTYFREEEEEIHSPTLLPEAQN

[5] = target: T2, GST-LIN28A (full-length, 1–209) (human (cDNA of PA-1 cells)); assay: pull-down; GST pull-down (Glutathione Sepharose 4B) from lysates of co-transfected 293T cells, with or without nuclease (benzonase or DNase I/RNase A/MNase mixture); washes in NET2 (150 mM NaCl, 0.5% NP-40), 4 °C; western blot
[6] = target: T5, GST-LIN28A(1–124) (human (cDNA of PA-1 cells)) (UniProt Q9H9Z2); assay: as above
T5 sequence: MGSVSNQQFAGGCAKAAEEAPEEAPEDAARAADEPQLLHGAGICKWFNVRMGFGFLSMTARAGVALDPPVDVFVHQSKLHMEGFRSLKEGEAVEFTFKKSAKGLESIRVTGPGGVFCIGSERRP

[7] = target: T6, GST-LIN28A(1–77) (human (cDNA of PA-1 cells)) (UniProt Q9H9Z2); assay: as above
T6 sequence: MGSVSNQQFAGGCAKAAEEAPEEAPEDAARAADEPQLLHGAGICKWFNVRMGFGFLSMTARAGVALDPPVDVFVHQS

[8] = target: T7, GST-LIN28A(78–163) (human (cDNA of PA-1 cells)) (UniProt Q9H9Z2); assay: as above
T7 sequence: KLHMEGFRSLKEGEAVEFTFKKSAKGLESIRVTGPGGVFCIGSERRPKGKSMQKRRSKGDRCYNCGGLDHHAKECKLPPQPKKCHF

His-LIN28A [9] = target: T1, His-LIN28A; assay: SPR; kinetic evaluation: His-LIN28A on Ni-NTA chip, P8 at 30, 15, 7.5, 3.8, 1.9 and 0.95 μM in 1× HBS-T; both purified
[10] = target: T8, GST-MYC-UPF1 (full-length, 1–1118) (UniProt Q92900); assay: pull-down; in vitro GST pull-down: GST-MYC-UPF1 purified from 293T on glutathione beads (nuclease mixture), incubated with His-LIN28A in NET2 buffer 2 h at 4 °C; Coomassie staining and western blot; both purified
T8 sequence: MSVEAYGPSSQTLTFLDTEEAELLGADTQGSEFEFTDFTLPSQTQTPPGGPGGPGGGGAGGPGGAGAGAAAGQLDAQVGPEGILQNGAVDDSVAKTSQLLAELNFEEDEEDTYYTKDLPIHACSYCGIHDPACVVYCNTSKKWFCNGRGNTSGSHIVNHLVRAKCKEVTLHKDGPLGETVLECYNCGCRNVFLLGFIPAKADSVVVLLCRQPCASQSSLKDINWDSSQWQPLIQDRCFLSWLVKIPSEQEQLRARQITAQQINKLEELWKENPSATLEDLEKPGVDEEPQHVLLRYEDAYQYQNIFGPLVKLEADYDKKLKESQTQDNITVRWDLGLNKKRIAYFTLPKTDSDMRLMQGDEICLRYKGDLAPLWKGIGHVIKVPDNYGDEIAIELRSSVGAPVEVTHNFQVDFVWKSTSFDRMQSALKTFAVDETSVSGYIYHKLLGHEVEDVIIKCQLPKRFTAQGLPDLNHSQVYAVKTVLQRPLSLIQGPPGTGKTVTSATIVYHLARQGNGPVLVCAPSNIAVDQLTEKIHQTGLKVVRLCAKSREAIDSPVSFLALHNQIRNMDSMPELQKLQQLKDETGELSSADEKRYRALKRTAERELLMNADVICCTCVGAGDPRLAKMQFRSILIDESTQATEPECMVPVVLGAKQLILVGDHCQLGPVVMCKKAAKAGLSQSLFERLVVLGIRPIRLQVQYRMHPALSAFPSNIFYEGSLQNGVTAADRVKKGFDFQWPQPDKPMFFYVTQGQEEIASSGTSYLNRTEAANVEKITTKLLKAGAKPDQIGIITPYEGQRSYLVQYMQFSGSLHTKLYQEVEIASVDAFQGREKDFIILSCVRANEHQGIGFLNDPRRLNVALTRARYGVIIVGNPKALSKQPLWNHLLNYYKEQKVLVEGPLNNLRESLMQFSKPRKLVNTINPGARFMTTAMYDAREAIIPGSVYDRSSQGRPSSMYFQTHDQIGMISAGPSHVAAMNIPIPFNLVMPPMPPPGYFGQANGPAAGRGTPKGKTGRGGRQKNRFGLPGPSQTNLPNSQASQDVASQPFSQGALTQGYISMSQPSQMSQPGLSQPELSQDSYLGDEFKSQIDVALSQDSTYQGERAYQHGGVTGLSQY

## STSFDRMQSALKTFAVD [P4]
His-LIN28A [1]
  binding: binds weakly

## KKKWCRKKKSSADEKRYRALKRTAERELLMNA [CPP-P8]
[2]
  binding: binds
[3]
  binding: binds
[4]
  binding: binds

B1: MYC-UPF1 (protein, UniProt Q92900-2 1-1118)
chain: MSVEAYGPSSQTLTFLDTEEAELLGADTQGSEFEFTDFTLPSQTQTPPGGPGGPGGGGAGGPGGAGAGAAAGQLDAQVGPEGILQNGAVDDSVAKTSQLLAELNFEEDEEDTYYTKDLPIHACSYCGIHDPACVVYCNTSKKWFCNGRGNTSGSHIVNHLVRAKCKEVTLHKDGPLGETVLECYNCGCRNVFLLGFIPAKADSVVVLLCRQPCASQSSLKDINWDSSQWQPLIQDRCFLSWLVKIPSEQEQLRARQITAQQINKLEELWKENPSATLEDLEKPGVDEEPQHVLLRYEDAYQYQNIFGPLVKLEADYDKKLKESQTQDNITVRWDLGLNKKRIAYFTLPKTDSDMRLMQGDEICLRYKGDLAPLWKGIGHVIKVPDNYGDEIAIELRSSVGAPVEVTHNFQVDFVWKSTSFDRMQSALKTFAVDETSVSGYIYHKLLGHEVEDVIIKCQLPKRFTAQGLPDLNHSQVYAVKTVLQRPLSLIQGPPGTGKTVTSATIVYHLARQGNGPVLVCAPSNIAVDQLTEKIHQTGLKVVRLCAKSREAIDSPVSFLALHNQIRNMDSMPELQKLQQLKDETGELSSADEKRYRALKRTAERELLMNADVICCTCVGAGDPRLAKMQFRSILIDESTQATEPECMVPVVLGAKQLILVGDHCQLGPVVMCKKAAKAGLSQSLFERLVVLGIRPIRLQVQYRMHPALSAFPSNIFYEGSLQNGVTAADRVKKGFDFQWPQPDKPMFFYVTQGQEEIASSGTSYLNRTEAANVEKITTKLLKAGAKPDQIGIITPYEGQRSYLVQYMQFSGSLHTKLYQEVEIASVDAFQGREKDFIILSCVRANEHQGIGFLNDPRRLNVALTRARYGVIIVGNPKALSKQPLWNHLLNYYKEQKVLVEGPLNNLRESLMQFSKPRKLVNTINPGARFMTTAMYDAREAIIPGSVYDRSSQGRPSSMYFQTHDQIGMISAGPSHVAAMNIPIPFNLVMPPMPPPGYFGQANGPAAGRGTPKGKTGRGGRQKNRFGLPGPSQTNLPNSQASQDVASQPFSQGALTQGYISMSQPSQMSQPGLSQPELSQDSYLGDEFKSQIDVALSQDSTYQGERAYQHGGVTGLSQY
[5]
  binding: binds
[6]
  binding: binds
[7]
  binding: binds
[8]
  binding: binds

B2: MYC-UPF1(419–700) (domain or fragment, UniProt Q92900-2 419-700)
chain: SFDRMQSALKTFAVDETSVSGYIYHKLLGHEVEDVIIKCQLPKRFTAQGLPDLNHSQVYAVKTVLQRPLSLIQGPPGTGKTVTSATIVYHLARQGNGPVLVCAPSNIAVDQLTEKIHQTGLKVVRLCAKSREAIDSPVSFLALHNQIRNMDSMPELQKLQQLKDETGELSSADEKRYRALKRTAERELLMNADVICCTCVGAGDPRLAKMQFRSILIDESTQATEPECMVPVVLGAKQLILVGDHCQLGPVVMCKKAAKAGLSQSLFERLVVLGIRPIRLQV
[5]
  binding: binds

## SSADEKRYRALKRTAERELLMNA [P8]
His-LIN28A [9]
  binding: binds
His-LIN28A [1]
  binding: binds

B3: His-LIN28A (protein, UniProt Q9H9Z2 1-209)
chain: MGSVSNQQFAGGCAKAAEEAPEEAPEDAARAADEPQLLHGAGICKWFNVRMGFGFLSMTARAGVALDPPVDVFVHQSKLHMEGFRSLKEGEAVEFTFKKSAKGLESIRVTGPGGVFCIGSERRPKGKSMQKRRSKGDRCYNCGGLDHHAKECKLPPQPKKCHFCQSISHMVASCPLKAQQGPSAQGKPTYFREEEEEIHSPTLLPEAQN
[10]
  binding: binds
